Measured values from PubChem BioAssay AID624170 (National Center for Advancing Translational Sciences (NCATS), 2012).
Hit rate of the full screen: of about 410,000 compounds, about 850 (0.21%) were called active. This list was built around the results that the source calls inconclusive (neither active nor inactive); the mix of calls is not that of the screen. Calls come from the whole dose curve; as a rule, active = well fitted inhibition curve with a large enough effect; inconclusive = small, poorly fitted or top-dose-only effect, or another doubt; inactive = no such curve, though single readings can be large or run the other way. Where the call is inconclusive, the potency comes from a doubtful curve fit.

Biological target: Glutaminase kidney isoform, mitochondrial (Homo sapiens) (UniProt O94925)
Experiment: qHTS for Inhibitors of Glutaminase (GLS)
Conditions: GLS enzymatic activity, qHTS titration; series mostly up to 45.5 µM; activity change, negative = inhibition: at the top concentration
How it was run: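 Human kidney-isoform GLS in 45 mM KH2PO4 pH 8.2, 0.02% Tween-20, with compound, started with 1mM L-Glutamine (added stock). Glutamate oxidase/HRP/Amplex red coupled fluorescence read at start and after 30 min at RT.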
% is set by controls: 0 for no effect and ±100 for the full control effect; potency is the fitted concentration of half-maximal effect; tags give direction and shape of the fitted curve.

Sequence of UniProt O94925 (O94925 whole entry, looked up, canonical isoform): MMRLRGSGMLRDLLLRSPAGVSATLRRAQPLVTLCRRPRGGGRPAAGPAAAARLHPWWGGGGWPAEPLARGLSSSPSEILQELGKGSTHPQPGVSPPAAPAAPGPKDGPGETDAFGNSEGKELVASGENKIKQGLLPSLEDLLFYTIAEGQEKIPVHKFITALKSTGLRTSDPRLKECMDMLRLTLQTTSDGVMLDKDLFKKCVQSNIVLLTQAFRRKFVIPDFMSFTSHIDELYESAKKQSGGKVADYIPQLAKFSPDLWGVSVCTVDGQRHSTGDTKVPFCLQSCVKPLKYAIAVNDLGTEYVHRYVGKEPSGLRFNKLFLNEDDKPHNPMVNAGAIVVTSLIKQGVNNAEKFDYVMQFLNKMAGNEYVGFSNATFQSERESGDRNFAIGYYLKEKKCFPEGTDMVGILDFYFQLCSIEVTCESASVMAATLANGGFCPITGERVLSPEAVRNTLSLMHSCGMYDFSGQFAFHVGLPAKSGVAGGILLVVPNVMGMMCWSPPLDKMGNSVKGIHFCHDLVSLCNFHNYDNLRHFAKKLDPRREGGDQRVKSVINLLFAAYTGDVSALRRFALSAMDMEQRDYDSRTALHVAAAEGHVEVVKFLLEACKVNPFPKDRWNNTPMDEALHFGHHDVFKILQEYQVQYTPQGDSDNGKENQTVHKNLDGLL

Potency, inactive:
COc1ccc(NC(=O)c2cc(S(=O)(=O)N3CCCC3)ccc2OC)cc1
Oc1ccc(C2CNCCc3c2cc(O)c(O)c3Cl)cc1 (stereo not given)

Potency, inconclusive:
CCOc1ccc(NCc2cccn2-c2nnc(N3CCC(C(=O)NCCCN4CC(C)CC(C)C4)CC3)s2)cc1 (stereo not given) 7.08 µM [inhibitor, full curve]
Cc1ccc(NC2CC(=O)N(c3cccc([N+](=O)[O-])c3)C2=O)cc1 (stereo not given) 15.8 µM [inhibitor, partial curve, poor fit]
O=C(NCCN1CCOCC1)NC1(C(F)(F)F)Oc2ccc(Cl)cc2O1 (stereo not given) 35.5 µM [inhibitor, single point]
Clc1ncnc2c1oc1ccccc12 31.6 µM [inhibitor, single point]
CC1=[N+](C)c2c(ccc3cccnc23)C1(C)C 35.5 µM [inhibitor, single point]
Cn1c(NCc2cccnc2)nc2cc(-c3ccc(F)cc3)sc2c1=O 35.5 µM [inhibitor, single point]
CC(=O)N1c2ccc(S(=O)(=O)NCCC(=O)NCc3ccc(N(C)C)cc3)cc2CC1C (stereo not given) 35.5 µM [inhibitor, partial curve, poor fit]
COc1ccc(CN2C(=O)c3cccnc3C2O)cc1 (stereo not given) 11.2 µM [inhibitor, partial curve]
O=C(/C=C/c1ccco1)Nc1cc(Cl)ccc1C(=O)O 25.1 µM [inhibitor, single point]
CC1(C)CC(=O)c2sc(NS(=O)(=O)c3ccc(F)cc3)nc2C1 25.1 µM [inhibitor, single point]
N#CC1C(C#N)N2CCCN2C1c1ccc(Cl)cc1 (stereo not given) 35.5 µM [inhibitor, single point]
CC1(C)Cc2c(sc(NC(=O)COc3cccc4ccccc34)c2C#N)C(C)(C)N1 22.4 µM [inhibitor, single point]
Oc1c(C(c2ccccc2)N2CCOCC2)ccc2ccccc12 (stereo not given) 10 µM [inhibitor, partial curve]
O=C(CN1C(=O)/C(=C/c2ccco2)SC1=S)NC1CCS(=O)(=O)C1 (stereo not given) 22.4 µM [inhibitor, single point]
CC(C)Cc1nc2oc3c(=O)[nH]cnc3c2c2c1CCC2 20 µM [inhibitor, single point]
CC1CCCCN1CC(=O)Nc1ccc(N2CCCCCC2)cc1 (stereo not given) 35.5 µM [inhibitor, single point]
Cc1nc2c(C(=O)NCc3ccco3)cnn2c(C)c1Cc1ccc(F)cc1Cl 8.91 µM [inhibitor, partial curve]
CCOc1ccc(OCC)c(NC(=O)C2CCN(S(=O)(=O)c3c(C)[nH]c(=O)[nH]c3=O)CC2)c1 22.4 µM [inhibitor, single point]
COc1ccc(OC)c(/C=N/n2c(-c3n[nH]c4c3CCC4)n[nH]c2=S)c1 14.1 µM [inhibitor, single point]
CC(C)N(Cc1ccccc1)C(=O)COC(=O)c1ccc2ncsc2c1 17.8 µM [inhibitor, single point]
Cc1cccc(Cc2c(C)nc3c(C(=O)NCc4ccco4)cnn3c2C)c1 11.2 µM [inhibitor, partial curve]
COC(=O)c1ccc(COc2ccccc2/C=N/Nc2cccc(C(=O)O)c2)cc1 35.5 µM [inhibitor, single point]
O=[N+]([O-])c1ccc(N2CCN(C(=S)c3cccc([N+](=O)[O-])c3)CC2)cc1 3.55 µM [inhibitor, partial curve, poor fit]
CC1C=CCC2C(=O)N(c3ccc(Cl)cc3O)C(=O)C12 (stereo not given) 35.5 µM [inhibitor, single point]
Oc1ccc(-c2csc(-c3ccccc3)n2)cc1O 35.5 µM [inhibitor, single point]
CN1Cc2sc(N)c(C#N)c2CC1(C)C 35.5 µM [inhibitor, partial curve, poor fit]
CC(C)N1CSC(=S)N(Cc2ccccc2)C1 35.5 µM [inhibitor, partial curve, poor fit]
COc1ccccc1-c1cn[nH]c(=S)n1 1.12 µM [inhibitor, full curve]
CCOc1ccc(C(=O)C(C)=O)c(OCC)c1 35.5 µM [inhibitor, single point]
CC(C)C(CC(=O)N1CCCCC1)C1CCOC(C)(C)C1 (stereo not given) 35.5 µM [inhibitor, single point]
Cn1ccnc1SCC(=O)c1ccc(C#N)cc1 31.6 µM [inhibitor, single point]
CC(=O)c1c(C)[nH]c(C(=O)OCC(=O)c2ccc3c(c2)NC(=O)CO3)c1C 6.31 µM [inhibitor, partial curve]
CC(C)/C=N/Nc1nc2c(c(=O)n(C)c(=O)n2C)n1C 11.2 µM [inhibitor, single point]
CCCOc1ccc(N2C(=O)C3ON(c4ccccc4)C(c4ccc(O)c(OC)c4)C3C2=O)cc1 (stereo not given) 35.5 µM [inhibitor, partial curve, poor fit]
COc1cccc(CNC(=O)c2ccc(CSc3nc4ccncc4n3Cc3cccc(C)c3)cc2)c1 6.31 µM [inhibitor, single point]
Cn1c(C(=O)O)c(CC(=O)Nc2ccc3c(c2)OCCO3)c2ccccc21 11.2 µM [inhibitor, partial curve]
COc1ccc(NCC(O)COc2ccc(C(C)(C)C)cc2)cc1 (stereo not given) 11.2 µM [inhibitor, partial curve]
Cc1ccc(CNC(=O)CSCc2cccc(F)c2)cc1 25.1 µM [inhibitor, single point]
COc1ccc(NC(=O)CSc2nnc(C3CC3)n2C)cc1 35.5 µM [inhibitor, single point]
COc1cc(NC(=O)c2ccc(-c3ccnn3C)c3ccoc23)cc(OC)c1OC 31.6 µM [inhibitor, single point]
Cc1ccc(NC(=O)CCC(=O)NNS(=O)(=O)c2ccccc2)c(C)c1 35.5 µM [inhibitor, single point]
Cc1ccc(N2C(=O)C3N=NN(CC(=O)N4N=C(c5cccc6ccccc56)CC4c4ccccc4)C3C2=O)cc1 (stereo not given) 7.08 µM [inhibitor, partial curve]
CC(C)CCNC(=O)NC(=O)COC(=O)/C=C/c1cc(Br)ccc1F 22.4 µM [inhibitor, partial curve, poor fit]
O=C(NC1CCCC1)c1ccc(CSc2nc3ccncc3n2Cc2ccccc2F)cc1 0.708 µM [inhibitor, partial curve, poor fit]
C#CCn1cc(/C=N/Nc2nc3ccccc3[nH]2)c2ccccc21 10 µM [inhibitor, partial curve]
O=C(NNC1CC(=O)N(c2ccc(F)cc2)C1=O)c1cccnc1 (stereo not given) 6.31 µM [inhibitor, partial curve]
Cc1ccc(N2NC(=O)/C(=C\c3cc4c(cc3[N+](=O)[O-])OCO4)C2=O)cc1C 25.1 µM [inhibitor, single point]

Potency, active:
Cc1c(C)c2ccc(OCC(=O)NC(Cc3c[nH]c4ccc(O)cc34)C(=O)O)c(C)c2oc1=O (stereo not given) 11.2 µM

Activity change, negative = inhibition, inactive:
O=C(OCc1ccccc1)N1CCC2CC1c1cc(N3CCCCC3)ccc12 (stereo not given) 18.6%
Cc1ccc(Cl)cc1NC(=S)N(CCN(C)C)C(C)c1ccccn1 (stereo not given) 9.04%
CCC(C(=O)N1CCN(c2ncccn2)CC1)c1ccccc1 (stereo not given) 39.7%
CCOC(=O)c1sc2nccc(OC)c2c1N=CNOC -0.231%
Oc1ccc(C=Nc2ccc(N3CCOCC3)cc2)c(O)c1 96.6%
CCn1c(CC(=O)Nc2ccccc2F)nnc1SCC(=O)Nc1nnc(C)s1 -9.03%
COc1cc(OC)nc(-n2ncc(OC)c(Br)c2=O)n1 -1.56%
Cc1cccc(N=Nc2c(C)c(C#N)c(O)[nH]c2=O)c1 18.8%
O=C(O)C1CC=CCC1C(=O)NNc1ccccc1 (stereo not given) -13.7%
CCCN(CCC)c1nn2c(=O)c(C(=O)NCc3cccc(OC)c3)cnc2s1 2.05%
NS(=O)(=O)c1ccc(NC(=O)CNC(=O)c2ccc3c(c2)OCO3)cc1 -24.9%
O=C(COC(=O)c1ccc(S(=O)(=O)NCc2ccco2)cc1)Nc1ccccc1 3.81%
O=C(c1ccc(-n2cccn2)cc1)N1CCc2c([nH]c3ccccc23)C1c1ccccn1 (stereo not given) 4.07%
COCCCn1c(SCC(=O)Nc2ccc3c(c2)OCCO3)nnc1-c1ccoc1C 8.09%
CCN(CC(=O)NCc1cccs1)C(=O)c1cccc(Cl)c1 1.15%
Cc1cc(C)c2c(=O)cc(C(=O)Nc3sc4c(c3C(=O)NCc3ccccc3)CCCC4)oc2c1 -8.11%
CC(=O)Nc1ccc2nc(C3CC3)n(Cc3ccc(Cl)cc3)c(=O)c2c1 1.1%
COc1ccccc1-c1nc2c(c(SCc3cccc(Cl)c3)n1)Cc1c(CO)cnc(C)c1O2 -9.82%
CCc1ccc(NC(=O)c2cc(C(C)=O)n3ccccc23)cc1 -0.981%
C=C(C)CN(CC)C(=O)CSc1ccc(S(=O)(=O)N2CCN(C)CC2)cn1 -17.1%
